According to paper PMC4336329 (PLoS ONE, 2015):
Out of some 310,000 compounds screened, about 2,200 (0.71%) showed an effect of 50% or more. The effect is printed as a negative number. The list shows a part of the results.

biological target: human ether-à-go-go-related gene (hERG) potassium channel (human, UniProt Q12809); assay: primary screen, population patch clamp on CHO cells stably expressing hERG
Sequence (Q12809 whole entry, looked up): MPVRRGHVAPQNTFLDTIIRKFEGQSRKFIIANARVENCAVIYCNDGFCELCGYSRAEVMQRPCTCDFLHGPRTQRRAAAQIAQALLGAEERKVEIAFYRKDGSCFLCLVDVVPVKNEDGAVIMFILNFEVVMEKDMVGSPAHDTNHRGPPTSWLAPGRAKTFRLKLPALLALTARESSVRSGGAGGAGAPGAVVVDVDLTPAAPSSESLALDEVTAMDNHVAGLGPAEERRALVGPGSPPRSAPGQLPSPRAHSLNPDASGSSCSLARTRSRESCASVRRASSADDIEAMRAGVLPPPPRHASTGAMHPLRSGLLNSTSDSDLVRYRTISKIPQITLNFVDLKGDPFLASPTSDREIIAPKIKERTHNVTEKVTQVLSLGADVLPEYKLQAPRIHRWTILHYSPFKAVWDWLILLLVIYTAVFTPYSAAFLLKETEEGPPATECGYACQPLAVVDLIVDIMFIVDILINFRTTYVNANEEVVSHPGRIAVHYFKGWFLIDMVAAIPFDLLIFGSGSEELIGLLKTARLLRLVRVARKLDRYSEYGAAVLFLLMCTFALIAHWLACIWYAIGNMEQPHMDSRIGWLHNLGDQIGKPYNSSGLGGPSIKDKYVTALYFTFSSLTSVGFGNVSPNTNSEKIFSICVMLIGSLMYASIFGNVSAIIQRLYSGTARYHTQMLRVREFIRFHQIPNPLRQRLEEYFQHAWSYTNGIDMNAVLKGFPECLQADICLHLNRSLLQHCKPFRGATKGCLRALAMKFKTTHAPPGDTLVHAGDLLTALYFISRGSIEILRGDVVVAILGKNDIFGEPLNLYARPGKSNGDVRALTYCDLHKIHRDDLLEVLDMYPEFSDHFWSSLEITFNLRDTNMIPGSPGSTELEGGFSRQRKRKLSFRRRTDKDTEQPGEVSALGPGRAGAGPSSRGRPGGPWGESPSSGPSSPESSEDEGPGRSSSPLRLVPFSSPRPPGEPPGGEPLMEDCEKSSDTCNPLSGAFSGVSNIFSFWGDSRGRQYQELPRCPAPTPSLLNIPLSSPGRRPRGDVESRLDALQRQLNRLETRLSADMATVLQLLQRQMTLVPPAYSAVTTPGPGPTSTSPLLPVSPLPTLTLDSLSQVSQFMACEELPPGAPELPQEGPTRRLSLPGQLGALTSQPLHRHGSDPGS

| Compound | hERG current change (%, negative = inhibition) at 1uM [%] |
| --- | --- |
| COc1cccc(C(=O)NC2(C(F)(F)F)N=C3SCCN3C2=O)c1 (stereo not drawn) | 0.818 |
| Cc1cccc(C(=O)Nc2sc3c(c2C#N)CCCCC3)c1 | 10.1 |
| COc1ccccc1NC(=O)c1nn(-c2ccc(Cl)cc2)ccc1=O | 0.496 |
| COC12NC(=O)N(C)C1(OC)C(=O)N(C)C(=O)N2C (stereo not drawn) | 14.5 |
| COc1cccc(OC)c1C(=O)NC(=O)Nc1c(F)c(F)c(F)c(F)c1F | 10.4 |
| O=C(O)CN1C(=O)Nc2ccc(Br)cc2C1c1ccccc1 (stereo not drawn) | 3 |
| FC(F)(F)c1cccc(-c2nn[nH]n2)c1 | 6.08 |
| O=S(=O)(Nc1ccncc1)c1ccccc1 | 17.4 |
| O=C(O)CC1(CC(=O)Nc2ccc3c(c2)C(=O)OC3)CCCCC1 | 10.7 |
| CC(C(=O)Nc1nc2ccccc2[nH]1)N1C(=O)C2CC=CCC2C1=O (stereo not drawn) | 12.1 |
| CCCCC(=O)Nc1nnc(S(=O)(=O)N(C)Cc2ccco2)s1 | 12.6 |
| CN(C)c1cc[n+](CC(=O)Nc2ccc(Cl)cc2)cc1.[Cl-] | 15.9 |
| Cl.NCCSC1CC(=O)N(c2ccc(F)cc2)C1=O (stereo not drawn) | 18.5 |
| CC(C)CC(c1nnnn1Cc1ccc2c(c1)OCO2)N1CCC(C(N)=O)CC1 (stereo not drawn) | 14.5 |
| CCCn1c(N)c(N(CCOC)C(=O)c2cccc(C(F)(F)F)c2)c(=O)[nH]c1=O | 13.8 |
| O=C(CC(=O)NN=C1CCCCCC1)NCc1cccnc1 | 8.13 |
| CC(C)CNC(=S)N(CCCO)Cc1cc2cc3c(cc2[nH]c1=O)OCO3 | 7.57 |
| COc1ccc(NC(=S)NC(NC(=O)CF)C(Cl)(Cl)Cl)cc1[N+](=O)[O-] (stereo not drawn) | 6.83 |
| COc1ccc(Oc2nc(C)cc(C)c2S(C)(=O)=O)cc1 | 7.92 |

| Compound | hERG current change (%, negative = inhibition) at 1uM [%] |
| --- | --- |
| CCn1ccc(C(=O)N2CCN(c3ncccn3)CC2)n1 | 7.97 |
| CCc1n[nH]c(=S)n1/N=C/c1c[nH]c2ccc(Br)cc12 | 8.23 |
| CCOC(=O)C1(CC2CC2)CCN(Cc2cn(C)c3ccccc23)CC1 | 12.2 |
| Cc1nc(C(=O)Nc2cccc(Cl)c2Cl)nn1-c1cc(OC(C)C)c(Cl)cc1Cl | 17.5 |
| O=C(Nc1cccc(NC(=O)c2cccc(F)c2)n1)c1cccc(F)c1 | 7.29 |
| Cc1ccc(OCC(=O)N(Cc2ccc(N(C)C)cc2)C2CCS(=O)(=O)C2)cc1C (stereo not drawn) | 0.619 |
| COc1ccc(-c2nc3ccccc3o2)cc1NC(=O)c1ccc(Br)o1 | 10.3 |
| Cc1onc(-c2ccccc2)c1C(=O)NCCN1CCOCC1 | 15.6 |
| COc1cccc(-c2nnc(NC(=O)c3ccc(S(=O)(=O)N4CC(C)OC(C)C4)cc3)o2)c1 (stereo not drawn) | 3.65 |
| Cc1ccc(NC(=S)NCC(O)c2ccccc2)c(C)c1 (stereo not drawn) | 17.6 |
| O=C(N/N=C/c1ccc[nH]1)c1cccnc1 | 13.1 |
| CCOc1ccc(N2C(=O)Nc3ccccc3C2(O)C(=O)NCc2ccccc2)cc1 (stereo not drawn) | 14.4 |
| COc1cccc(-c2cc(C(F)(F)F)n3nc(C(=O)N4CCC5(CC4)OCCO5)cc3n2)c1 | 1.68 |
| CCOC(=O)c1c(-c2ccc(C)cc2)csc1/N=C(\C)C1=C(O)c2ccccc2C1=O | 13.2 |
| COC(=O)CCN(c1ccccc1)S(=O)(=O)c1cc(-c2cc(C)no2)ccc1C | 3.76 |
| CN(C)/C=N/C(=S)Nc1ccccc1F | 1.45 |
| O=C(CCC(=O)OCc1cccc(C(=O)Oc2ccccc2)c1)Nc1cccc2ccccc12 | 11.8 |
| O=C(COC(=O)Cc1ccc(F)cc1)NCc1ccco1 | 6.18 |
| Cc1cccc2cc(C#N)c(SCC(=O)Nc3ccccc3N3CCOCC3)nc12 | 13.6 |

| Compound | hERG current change (%, negative = inhibition) at 1uM [%] |
| --- | --- |
| O=C1CCN(C(=O)CSc2ccc(Cl)cc2)N1 | 6.99 |
| NC(=S)NNc1c(F)c(F)c(F)c(F)c1F | 13.8 |
| Cc1sc2nc(NCCO)[nH]c(=O)c2c1C | 14.6 |
| CC(C)(C#N)c1cc(Cn2cncn2)cc(C(C)(C)C#N)c1 | -1.17 |
| CCn1c(CNC(=O)c2ccc3c(c2)OCO3)nnc1SCC(=O)Nc1cc(C)ccc1OC | 6.1 |
| O=C(c1cccnc1)c1ncc(C(F)(F)F)cc1Cl | 1.12 |
| CC(C)CC(=O)N1CCN(Cc2cccc([N+](=O)[O-])c2)CC1 | 7.83 |
| O=C(COC(=O)c1cc(=O)[nH]c2ccccc12)NCc1ccc(F)cc1 | -3.48 |
| CN(C)CCCn1c2c(c(SCC(=O)Nc3cccc4ccccc34)nc1=O)CCC2 | 4.92 |
| COc1ccc(CNC(=O)CNC(=O)c2ccc(Br)o2)cc1OC | 18.1 |
| O=c1cccccc1NN=C1CCCCCC1 | 14.1 |
| COCCCN1C(=O)C(O)=C(C(=O)c2ccco2)C1c1ccc(Br)cc1 (stereo not drawn) | -5.22 |
| CCCC[n+]1ccn(-c2nc3ccccc3nc2[N-]S(=O)(=O)c2ccccc2)c1 | 3.47 |
| CCC1(C(=O)c2ccccc2)C2c3cc(Br)ccc3OC(=O)C21C(=O)N1CCOCC1 (stereo not drawn) | 6.68 |
| C#CCOCCOCCOCCNc1nc(N2CCN(C(=O)C(Cc3ccc(O)cc3)n3cc(C(N)C(C)CC)nn3)CC2)nc(N2CCN(C(=O)C(Cc3ccc(O)cc3)n3cc(C(N)C(C)CC)nn3)CC2)n1.Cl (stereo not drawn) | -16.9 |
| COc1ccc2sc(NCc3ccccc3)nc2c1 | 17.2 |
| O=C1NCCCc2nonc21 | 9.73 |
| COC(=O)c1sc(NC(=O)c2c(OC)cccc2OC)c(C#N)c1C | 11 |
| O=C(Cc1cccs1)N1CCN=C1SCc1ccccc1Cl | 3.66 |
